Experimental findings from patent publication US12583836B2 (Anaxis Pharma Pty Ltd, priority 2020, dated 2026) are described below.

Each structure is given as a SMILES string.

In one assay the target is T1, RIP1 (Homo sapiens, UniProt Q13546).
T1 construct: purchased DiscoverX (KINOMEscan service); host or cells: E. coli BL21-derived (T7 phage) or HEK293
T1 sequence (Q13546 1-671): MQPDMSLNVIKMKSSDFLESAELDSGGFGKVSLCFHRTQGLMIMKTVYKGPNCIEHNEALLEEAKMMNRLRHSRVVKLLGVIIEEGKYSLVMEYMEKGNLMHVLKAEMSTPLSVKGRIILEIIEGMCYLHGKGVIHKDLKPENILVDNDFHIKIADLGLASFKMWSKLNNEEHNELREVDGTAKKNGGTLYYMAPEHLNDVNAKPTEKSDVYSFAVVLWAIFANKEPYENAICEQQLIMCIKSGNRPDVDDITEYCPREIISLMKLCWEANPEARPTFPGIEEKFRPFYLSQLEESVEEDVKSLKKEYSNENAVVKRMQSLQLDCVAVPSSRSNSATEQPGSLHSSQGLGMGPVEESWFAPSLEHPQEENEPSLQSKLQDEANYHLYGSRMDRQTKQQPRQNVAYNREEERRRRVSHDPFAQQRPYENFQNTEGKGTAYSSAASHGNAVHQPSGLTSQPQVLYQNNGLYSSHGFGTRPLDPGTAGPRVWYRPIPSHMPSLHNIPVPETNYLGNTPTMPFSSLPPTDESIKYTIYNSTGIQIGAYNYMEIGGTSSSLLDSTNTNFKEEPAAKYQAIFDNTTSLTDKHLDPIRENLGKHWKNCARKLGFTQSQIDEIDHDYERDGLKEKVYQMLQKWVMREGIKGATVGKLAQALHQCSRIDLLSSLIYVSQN
Briefly: KINOMEscan binding assay, RIP1. The conditions noted are these: equilibrium dissociation constant, class symbols.

The target of the next assay is T2, MLKL (full length) (Homo sapiens, UniProt Q8NB16).
T2 construct: purchased DiscoverX (KINOMEscan service); host or cells: E. coli BL21-derived (T7 phage) or HEK293
T2 sequence (Q8NB16 1-471): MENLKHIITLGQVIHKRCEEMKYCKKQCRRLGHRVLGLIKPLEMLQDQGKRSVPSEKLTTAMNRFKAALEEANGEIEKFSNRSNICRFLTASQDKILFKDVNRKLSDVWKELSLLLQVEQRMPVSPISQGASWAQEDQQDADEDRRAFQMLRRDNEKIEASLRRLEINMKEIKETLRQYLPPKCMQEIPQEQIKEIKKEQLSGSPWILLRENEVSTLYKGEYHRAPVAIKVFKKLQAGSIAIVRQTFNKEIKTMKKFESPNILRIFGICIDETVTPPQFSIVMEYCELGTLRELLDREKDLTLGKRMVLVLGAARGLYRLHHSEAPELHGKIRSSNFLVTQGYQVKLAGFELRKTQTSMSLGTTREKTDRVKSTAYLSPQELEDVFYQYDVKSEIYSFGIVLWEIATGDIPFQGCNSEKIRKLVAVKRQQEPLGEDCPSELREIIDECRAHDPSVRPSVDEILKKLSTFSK
The assay is described as follows: KINOMEscan binding assay, MLKL. The settings on record: equilibrium dissociation constant, class symbols. The source says:
The Hill Slope was set to −1.

For the compound `CCc1cc(Nc2[nH]nc(-c3ccc(NS(=O)(=O)C(F)F)c(O[C@@H](C)c4ccc(F)cc4)c3)c2C(N)=O)no1` [Compound 274, (S)-3-(4-((difluoromethyl)sulfonamido)-3-(1-(4-fluorophenyl)ethoxy)phenyl)-5-((5-ethylisoxazol-3-yl)amino)-1H-pyrazole-4-carboxamide], the figures for the Kd on RIP1 and at MLKL (full length) were more than 30 µM and less than 0.01 µM, respectively.
